Data reported in article PMC5540273 (PLoS ONE, 2017).
For some of these results: The strong results were mostly taken out for another list; the other results follow. The entries are a selection whose mix differs from that of the whole data set.

Experiments:
Conditions in all cases: concentration: 1 μM,replicates: in singlicate; n = 1
[1] = system: T1, RSK3(Kin.Dom.1-N-terminal)
T1 construct: gene RPS6KA2

[2] = system: T2, RSK3(Kin.Dom.2-C-terminal)
T2 construct: gene RPS6KA2

[3] = system: T3, RSK4(Kin.Dom.1-N-terminal)
T3 construct: gene RPS6KA6

[4] = system: T4, RSK4(Kin.Dom.2-C-terminal)
T4 construct: gene RPS6KA6

[5] = system: S6K1
[6] = system: SBK1
[7] = system: SGK2
[8] = system: SGK3
[9] = system: SGK
[10] = system: SIK2
[11] = system: SIK
[12] = system: SLK
[13] = system: T5, SNARK
T5 construct: gene NUAK2

[14] = system: SNRK
[15] = system: SRC
[16] = system: SRMS
[17] = system: SRPK1
[18] = system: SRPK2
[19] = system: SRPK3
[20] = system: STK16
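Further: KINOMEscan kinase panel screen.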

| SMILES | %Inh [1] | %Inh [2] | %Inh [3] | %Inh [4] | %Inh [5] | %Inh [6] | %Inh [7] | %Inh [8] | %Inh [9] | %Inh [10] | %Inh [11] | %Inh [12] | %Inh [13] | %Inh [14] | %Inh [15] | %Inh [16] | %Inh [17] | %Inh [18] | %Inh [19] | %Inh [20] |
| --- | --- | --- | --- | --- | --- | --- | --- | --- | --- | --- | --- | --- | --- | --- | --- | --- | --- | --- | --- | --- |
| O=C1NC(=O)C(c2ccccc2Cl)=C1Nc1ccccc1 [SB-376715] | 10% | 0% | 34% | 23% | 0% | 0% | 0% | 3% | 0% | 0% | 9% | 51% | 13% | 0% | 1% | 4% | 17% | 14% | 0% | 0% |
| COc1ccc(C2=C(Nc3cccc(Cl)c3)C(=O)NC2=O)cc1 [SB-326892] | 13% | 0% | 13% | 7% | 0% | 0% | 0% | 9% | 0% | 0% | 11% | 84% | 8% | 0% | 0% | 0% | 21% | 0% | 21% | 0% |
| O=C1NC(=O)C(c2ccccc2Cl)=C1Nc1cccc(C(=O)O)c1 [SB-390526] | 4% | 0% | 0% | 4% | 0% | 34% | 0% | 0% | 0% | 2% | 0% | 40% | 9% | 0% | 0% | 2% | 26% | 28% | 24% | 0% |
| O=C1NC(=O)C(c2ccc(Cl)cc2)=C1Nc1cccc(C(=O)O)c1 [SB-360737] | 0% | 0% | 0% | 0% | 18% | 0% | 6% | 3% | 0% | 0% | 0% | 11% | 0% | 0% | 0% | 0% | 12% | 0% | 0% | 11% |
| O=C1NC(=O)C(c2ccc(Cl)cc2)=C1Nc1ccc(O)c(Cl)c1 [SB-405367] | 4% | 2% | 9% | 0% | 31% | 27% | 11% | 15% | 7% | 0% | 24% | 55% | 25% | 6% | 9% | 18% | 28% | 0% | 0% | 2% |
| O=C1NC(=O)C(c2ccc(Cl)cc2)=C1Nc1cccc(O)c1 [SB-333613] | 2% | 11% | 31% | 17% | 16% | 35% | 0% | 20% | 26% | 6% | 0% | 21% | 25% | 4% | 13% | 10% | 3% | 0% | 15% | 3% |
| Cc1cc(C)cc(Oc2nccc(-c3c(-c4ccc(F)cc4)ncn3C3CCNCC3)n2)c1.O=C(O)C(F)(F)F.O=C(O)C(F)(F)F.O=C(O)C(F)(F)F [SB-284851] | 0% | 4% | 0% | 0% | 0% | 0% | 0% | 0% | 0% | 13% | 19% | 17% | 0% | 0% | 6% | 5% | 3% | 76% | 25% | 16% |
| COc1cccc(C2=C(Nc3ccc(SC)cc3)C(=O)NC2=O)c1 [SB-331032] | 0% | 35% | 34% | 9% | 0% | 60% | 18% | 13% | 20% | 8% | 0% | 78% | 37% | 0% | 0% | 18% | 10% | 0% | 0% | 0% |
